In PubChem BioAssay AID1671194 (National Center for Advancing Translational Sciences (NCATS), 2021):
Hit rate of the full screen: of about 140,000 compounds, about 240 (0.17%) were called active. The inconclusive results got no clear call from the source; some entries with a clear call stand among them for comparison. Calls follow the shape of the dose curve; as a rule, active = well fitted inhibition curve with a large enough effect; inconclusive = small, poorly fitted or top-dose-only effect; inactive = no such curve, though single readings can be large or run the other way. Potencies of inconclusive entries are doubtful fits and often do not repeat.

Assay: Primary qHTS assay for inhibitors of alpha-synuclein gene (SNCA) expression; also: nearly all actives have a fitted effect of over 45% in size;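 as to activity change, negative = inhibition: plate controls were DMSO cells for no effect and cell-free wells for full effect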
Settings: HEK-293 SNCA-luciferase knock-in, luminescence, 24 h; activity change, negative = inhibition: at 57.2 µM (top of the series) unless noted
Potency is read from the fitted curve at half-maximal effect; tags tell the direction and shape of the fitted curve.

Structure (SMILES)	Potency	activity change, negative = inhibition
CC(C)(N)c1ccc(-c2nc3ccccc3nc2-c2ccccc2)cc1	inconclusive: 0.215 µM [inhibitor, full curve, poor fit]	
O=C(NC1CCCCCC1)c1nc2sccn2c1-c1ccncc1		inactive: 25.6% [at 87.6 µM]
CC(C)(C)c1ccnc(N[C@H]2CO[C@H]3[C@@H]2OC[C@@H]3NC(=O)CCCC(=O)O)n1		inactive: 9.94% [at 87.6 µM]
O=C(Nc1cccc2ccccc12)O[C@@H]1CO[C@H]2[C@@H]1OC[C@@H]2NC(=O)C1CCC1		inactive: -13.8% [at 87.6 µM]
Cc1cccc(C(=O)N2CCN(c3cc(C(F)(F)F)nc(C)n3)CC2)c1	inconclusive: 17.8 µM [inhibitor, single point]	
COc1cccc(C(=O)NCCc2nc(C3CC3)nn2Cc2ccccc2)c1	inconclusive: 7.08 µM [inhibitor, single point]	
COC(=O)c1sc2cccc(F)c2c1S(=O)(=O)NC(C)c1ccccc1 (stereo unspecified)	inconclusive: 2 µM [inhibitor, partial curve, poor fit]	
COCCC(=O)N1CC2(CCCCC2)CC1COc1ccc(OC)cc1 (stereo unspecified)		inactive: -16.1%
Cc1noc(C)c1-c1cc2cc(CN(C)C)oc2c(Nc2ccn(C)n2)n1		inactive: 38.8% [at 87.6 µM]
COc1ccc2cc(C3CN(C(=O)CCc4n[nH]c(C)n4)CCO3)ccc2c1 (stereo unspecified)	inconclusive: 39.8 µM [inhibitor, single point]	
COc1cc(O)ccc1-c1nc2ccc(Br)cn2c1Nc1ccccc1C	inconclusive: 31.6 µM [inhibitor, partial curve, poor fit]	
COc1ccc(C(=O)N2CCCN(c3cc(-c4ccccc4)[nH]n3)CC2)c(OC)c1	inconclusive: 8.91 µM [inhibitor, single point]	
COc1ccc(C2Cn3nnc(-c4nc(C(C)(C)C)no4)c3CO2)cc1 (stereo unspecified)	inconclusive: 0.891 µM [inhibitor, full curve, poor fit]	
Cc1noc2c(N3CC(O)C3)cc(-c3ccsc3)nc12		inactive: -1.68% [at 87.6 µM]
O=C(N[C@H]1CCN2C(=O)c3ccccc3NC(=O)[C@@H]2C1)c1ccccc1	inconclusive: 35.5 µM [inhibitor, single point]	
CCN1c2cc(C(=O)NCc3cc(F)ccc3F)ccc2C(=O)N2CCCCCC21 (stereo unspecified)	inconclusive: 12.6 µM [inhibitor, partial curve]	
CC(=O)N1CCN(Cc2ccc(OCCCN3CCOCC3)cc2)CC1		inactive: 2.96%
O=C(NC1CCN(c2nc3ncccc3o2)C1)C1CC1 (stereo unspecified)		inactive: -19.6% [at 87.6 µM]
O=C(NCc1cccnc1)c1cc(-c2cnccc2Cl)c2cccn2n1		inactive: 6.54%
CCN(C(=O)c1c(O)c2c(Cl)cccc2n(C)c1=O)c1ccccc1	active: 5.41 µM	
O=C(CC1CCCCC1)NCCc1noc(C2CC2)n1		inactive: 34.1%
Cc1ccc(-c2ccc3nnc(CNC(=O)c4ccc(F)c(F)c4)n3n2)cc1		inactive: -2.24%
O=C(NCc1ccccc1F)C1CN(C2CCCC2)C(=O)N1 (stereo unspecified)		inactive: -9.2% [at 87.6 µM]

Structure (SMILES)	Potency	activity change, negative = inhibition
CCCCNC(=O)C1CCN(C(=O)c2nnn3c2COC(c2ccc(OC)cc2)C3)CC1 (stereo unspecified)	inconclusive: 39.8 µM [inhibitor, single point]	
COc1ccc(CN2C=C(C(=O)OCc3noc(-c4cccc(F)c4)n3)C(C)=NS2(=O)=O)cc1		inactive: -7.86%
Oc1ccc(-c2nc(C3CC3)nc3c2CCN(Cc2ccncc2)CC3)cc1	inconclusive: 3.16 µM [inhibitor, full curve]	
CNC(=O)c1cccc(-c2cnc3[nH]cc(CC(=O)NCc4cccc(F)c4)c3c2)c1	inconclusive: 11.2 µM [inhibitor, single point]	
Cc1ccc(C)c(-c2ccc(=O)n(C(C)C(=O)Nc3ccccc3C(F)(F)F)n2)c1 (stereo unspecified)	inconclusive: 25.1 µM [inhibitor, partial curve, poor fit]	
CC1(Cc2ccc3c(c2)OCO3)CCC(=O)N(CCc2ccncc2)C1 (stereo unspecified)	inconclusive: 39.8 µM [inhibitor, single point]	
O=C(c1ccccc1)N1CCCC2(C1)C(=NC1CCCC1)NC(=O)N2c1cc(F)cc(F)c1 (stereo unspecified)	inconclusive: 1.12 µM [inhibitor, full curve]	
COc1cccc(NC(=O)CSc2nnc3[nH]c(=O)cc(-c4ccccc4)n23)c1		inactive: -5.18%
C1CCC(C(CC2CCCCN2)C2CCCCC2)CC1 (stereo unspecified)	inconclusive: 17.8 µM [inhibitor, single point]	
O=S(=O)(C1CC1)N1CCC(Cc2noc(-c3ccccc3)n2)C1 (stereo unspecified)		inactive: 85%
COc1ccc(NC(=O)N2CCCCCC2c2nc(C)no2)cc1 (stereo unspecified)		inactive: -6.2%
CCCCOc1ccc(C(=O)NCCS(=O)(=O)N2CCN(c3ccccc3OC)CC2)cc1	inconclusive: 39.8 µM [inhibitor, single point]	
CCN(C(=O)CSc1nc2ccccc2nc1Cc1cccc(OC)c1)c1cccc(C)c1	inconclusive: 14.1 µM [inhibitor, partial curve, poor fit]	
COc1ccc(NC(=O)[C@@H]2C[C@H](c3ccc(F)cc3)N(Cc3csc(C)n3)C2)cc1		inactive: -12.7% [at 87.6 µM]
CCCNC(=O)N1CC(Oc2cccc(-c3nc(-c4ccccc4)no3)c2)C1		inactive: 8.26%
CCOCC(=O)Nc1ccc(-c2cn3c(C)csc3n2)cc1	inconclusive: 8.91 µM [inhibitor, full curve, poor fit]	
CC(C)(C)OC(=O)N1CC(N2CCc3ccccc32)C1		inactive: 33.2% [at 87.6 µM]
COc1ccccc1Nc1nn2c(=O)c3ccc(C(=O)NC4CCC(C)CC4)cc3nc2s1 (stereo unspecified)	inconclusive: 39.8 µM [inhibitor, single point]	
Cc1cc(C)cc(NC(=O)c2ccc3c(c2)N(C)C2CCCCCN2C3=O)c1 (stereo unspecified)	inconclusive: 6.31 µM [inhibitor, single point]	
COc1cccc(CNc2ncnc3c2nnn3C)c1	inconclusive: 35.5 µM [inhibitor, partial curve, poor fit]	
O=C(c1cccc(F)c1)N1CCC2(CCCN(c3ccccc3)C2)CC1	inconclusive: 14.1 µM [inhibitor, single point]	
CCN(C(=O)CSc1nc(-c2ccccc2)no1)c1cccc(C)c1	inconclusive: 7.94 µM [inhibitor, full curve, poor fit]	
CN1CCCC1c1nc(C2CN(C(=O)c3cccn3C)C2)no1 (stereo unspecified)	inconclusive: 39.8 µM [inhibitor, single point]	
